{
  "source": "PubChem BioAssay AID588342",
  "about": "(National Center for Advancing Translational Sciences (NCATS), 2011)",
  "note": "Among all 360,000 compounds or so, about 25,000 (6.9%) were called active. This list was built around the results that the source calls inconclusive (neither active nor inactive); the mix of calls is not that of the screen. Calls follow the shape of the dose curve; as a rule, active = well fitted inhibition curve with a large enough effect; inconclusive = small, poorly fitted or top-dose-only effect; inactive = flat fitted curve, though single readings scatter. A potency beside an inconclusive call is a rough fit, not a confirmed value. Potency is read from the fitted curve at half-maximal effect; tags tell the direction and shape of the fitted curve.",
  "data": [
    {"biological_target": "Luciferin 4-monooxygenase (Photinus pyralis) (UniProt P08659)", "sequence (P08659 whole entry, looked up)": "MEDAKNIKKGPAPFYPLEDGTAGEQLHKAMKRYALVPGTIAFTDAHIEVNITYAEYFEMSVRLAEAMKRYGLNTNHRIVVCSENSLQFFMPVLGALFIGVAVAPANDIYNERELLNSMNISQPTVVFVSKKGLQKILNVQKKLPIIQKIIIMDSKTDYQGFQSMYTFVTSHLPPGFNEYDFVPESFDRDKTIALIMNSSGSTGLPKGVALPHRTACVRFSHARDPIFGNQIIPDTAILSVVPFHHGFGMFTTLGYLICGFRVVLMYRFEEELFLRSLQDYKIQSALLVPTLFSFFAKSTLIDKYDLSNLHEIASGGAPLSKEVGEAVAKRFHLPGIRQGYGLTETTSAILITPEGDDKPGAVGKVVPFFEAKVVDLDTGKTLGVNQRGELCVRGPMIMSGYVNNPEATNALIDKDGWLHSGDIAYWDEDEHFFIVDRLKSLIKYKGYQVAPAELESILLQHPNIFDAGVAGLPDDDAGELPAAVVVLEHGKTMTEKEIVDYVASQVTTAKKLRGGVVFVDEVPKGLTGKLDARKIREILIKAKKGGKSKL", "assay": "qHTS profiling assay for firefly luciferase inhibitor/activator using purifed enzyme and Km concentrations of substrates (counterscreen for miR-21 project); also: nearly all actives have a fitted effect of over 55% in size;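 as to activity change, negative = inhibition: plate controls were vehicle for no effect and reference inhibitor for full effect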", "details": "purified FLuc, luminescence inhibition; series mostly up to 57.5 µM; activity change, negative = inhibition: at the top concentration", "procedure,_shortened": "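Biochemical qHTS of compounds, final roughly 60 µM downward over six points, against 10 nM purified firefly luciferase using Km concentrations of substrates (10 uM D-luciferin, 10 uM ATP) in Tris acetate pH 7.5 buffer; luminescence output.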", "values": [
      {"smiles": "Cc1cccc(/C=C2\\CS/C(=C\\c3cccc(C)c3)C2=O)c1", "Potency": "active: 8.49 µM"},
      {"smiles": "O=C(Nc1ccc(-c2cn3ccccc3n2)cc1)c1cccs1", "Potency": "active: 1.9 µM"},
      {"smiles": "CCCCOc1ccc(CON(C(C)=O)C(C)=O)cc1Cl", "Potency": "inconclusive: 26.9 µM [inhibitor, partial curve]"},
      {"smiles": "Cc1ccc(/C(N)=N/OC(=O)Oc2ccccc2)cc1", "Potency": "inconclusive: 37.9 µM [inhibitor, partial curve, poor fit]"},
      {"smiles": "C[C@@H]1CC=C[C@H]2[C@H]1C(=O)N(Cc1ccccc1)[C@H]2c1ccc(-c2cc3ccccc3s2)cc1F", "Potency": "active: 1.69 µM"},
      {"smiles": "Brc1ccc2oc3c(N4CCOCC4)ncnc3c2c1", "Potency": "active: 15.1 µM"},
      {"smiles": "O=C1NC(=O)/C(=C\\c2ccc(OCc3cnc(Cl)s3)cc2)S1", "Potency": "inconclusive: 10.7 µM [inhibitor, partial curve]"},
      {"smiles": "COc1ccc(-c2cc(C(=O)N3CCCCCC3)c3cc(C)ccc3n2)cc1", "Potency": "active: 12 µM"},
      {"smiles": "CCOC(=O)c1c(C)[nH]c(C)c1S(=O)(=O)N(C)CC(=O)Nc1ccc(C)cc1C", "activity change, negative = inhibition": "inactive: 0.27%"},
      {"smiles": "Nc1ccc(-c2nc3ccc(-c4nc5ccccc5o4)cc3[nH]2)cc1", "Potency": "inconclusive: 6.75 µM [inhibitor, full curve]"},
      {"smiles": "Cc1cc(C)c2oc(-c3cccc(NC(=O)COc4ccc([N+](=O)[O-])cc4)c3)nc2c1", "activity change, negative = inhibition": "inactive: 0.609%"},
      {"smiles": "Cc1ccc(C(=O)CSc2nnc3n2CCCCC3)s1", "Potency": "inconclusive: 21.3 µM [inhibitor, partial curve]"},
      {"smiles": "O=C(Cc1ccccc1)NC(Nc1cccc2ccccc12)C(Cl)(Cl)Cl", "note": "(stereo not given)", "activity change, negative = inhibition": "inactive: 3.32%"},
      {"smiles": "Fc1ccc(-c2ccc(CNCc3ccccn3)o2)cc1", "Potency": "active: 23.9 µM"},
      {"smiles": "COc1cc(C2CC(=O)Oc3c2c(=O)n(C)c2ccccc32)ccc1O", "note": "(stereo not given)", "Potency": "inconclusive: 21.3 µM [inhibitor, partial curve]"},
      {"smiles": "CN1CCN(C(=S)c2ccc(-c3cccc(Cl)c3Cl)o2)CC1", "Potency": "active: 4.78 µM"},
      {"smiles": "Oc1c(C=NCc2ccccc2)sc2ccccc12", "Potency": "active: 10.7 µM"},
      {"smiles": "COc1ccc(/C(C)=N/Nc2ccc(F)cc2F)c(O)c1", "Potency": "active: 10.7 µM"},
      {"smiles": "CCCc1ccc(-c2cc(C(=O)N/N=C/c3ccc([N+](=O)[O-])o3)c3ccccc3n2)cc1", "Potency": "active: 0.151 µM"},
      {"smiles": "CS(=O)(=O)c1cnc2c(-c3ccsc3)cnn2c1N", "Potency": "active: 10.7 µM"},
      {"smiles": "O=C(NNC(=S)Nc1ccc(Br)cc1)c1cccnc1", "Potency": "inconclusive: 37.9 µM [inhibitor, single point]"},
      {"smiles": "O=C(CN1C(=O)/C(=C\\c2ccccc2F)SC1=S)Nc1nc2ccccc2s1", "activity change, negative = inhibition": "inactive: -14.1%"},
      {"smiles": "N#C/C(=C\\c1ccc(OCc2ccc(Br)cc2)cc1)C(=O)Nc1cccc(C(=O)O)c1", "activity change, negative = inhibition": "inactive: -8.91%"},
      {"smiles": "CC(C)(C)C(=O)OC/C(N)=N/OC(=O)c1ccc(Cl)c(Cl)c1", "Potency": "inconclusive: 26.9 µM [inhibitor, single point]"},
      {"smiles": "COc1ccc(-c2nc3ccccc3n2OC(C)C(=O)O)cc1", "note": "(stereo not given)", "Potency": "active: 10.7 µM"},
      {"smiles": "C=C(C)CNC(=O)CCc1nnc(Cc2cccc(C(F)(F)F)c2)o1", "Potency": "active: 21.3 µM"},
      {"smiles": "C[C@H](NC(N)=O)C(=O)Nc1ccc2c(c1)OCO2", "Potency": "inconclusive: 30.1 µM [inhibitor, partial curve, poor fit]"},
      {"smiles": "Cc1ccc(NC(=O)CCn2cccc2)cc1F", "activity change, negative = inhibition": "inactive: 4.02%"},
      {"smiles": "CCOC(=O)N1CCN(C(=O)CN2C(=O)c3ccccc3S2(=O)=O)CC1", "activity change, negative = inhibition": "inactive: 3.47%"},
      {"smiles": "COCCn1c(-c2cccs2)nc2nc3ccccc3nc21", "Potency": "inconclusive: 23.9 µM [inhibitor, partial curve]"},
      {"smiles": "CCn1cc([N+](=O)[O-])c(C(=O)Nc2ccc3c(c2)OCCO3)n1", "Potency": "active: 19 µM"},
      {"smiles": "CCCN1C(=O)c2ccc(C(=O)NC3=NCCS3)cc2C1=O", "Potency": "inconclusive: 21.3 µM [inhibitor, partial curve, poor fit]"},
      {"smiles": "CCN(CC)C(=O)CNC(=O)c1nn(-c2ccc(OC)c(Cl)c2)c(=O)c2ccccc12", "Potency": "inconclusive: 19 µM [inhibitor, partial curve]"},
      {"smiles": "CC(C)(C(=O)Nc1nccs1)c1ccccc1", "activity change, negative = inhibition": "inactive: -5.95%"},
      {"smiles": "Cc1noc(C)c1C(=O)Nc1ccc2ccccc2c1", "Potency": "inconclusive: 21.3 µM [inhibitor, single point]"},
      {"smiles": "Cc1cccc(-c2ccc3ncnc(N(C)Cc4ccco4)c3c2)c1", "Potency": "inconclusive: 8.49 µM [inhibitor, partial curve, poor fit]"},
      {"smiles": "COc1ccc(-c2noc(-c3ccccc3C(=O)NCc3ccco3)n2)cc1", "Potency": "inconclusive: 2.69 µM [inhibitor, full curve]"},
      {"smiles": "COC(=O)c1ccccc1NC(=O)c1cc2sccc2n1C", "Potency": "inconclusive: 19 µM [inhibitor, single point]"},
      {"smiles": "O=[N+]([O-])c1cccnc1SCc1ccccc1", "Potency": "inconclusive: 37.9 µM [inhibitor, partial curve, poor fit]"},
      {"smiles": "COc1cc2ccccc2cc1C(=O)Nc1ccc(Cc2ccncc2)cc1", "Potency": "inconclusive: 15.1 µM [inhibitor, partial curve]"},
      {"smiles": "Cc1cccc(C(=O)NCCc2ccccc2)c1", "Potency": "active: 10.7 µM"},
      {"smiles": "CS(=O)(=O)c1ccc2nc(NC(=O)c3ccc(Cl)nc3)sc2c1", "Potency": "active: 21.3 µM"},
      {"smiles": "Cc1cccc(NC(=S)NNC(=O)c2sccc2C)c1", "Potency": "active: 15.1 µM"},
      {"smiles": "Cc1cccc(NC(=O)N2CC(=O)Nc3sc4c(c3C2c2ccccc2)CCCC4)c1C", "note": "(stereo not given)", "activity change, negative = inhibition": "inactive: -12.2%"},
      {"smiles": "COc1cc(OC)cc(C(=O)NCC(=O)Nc2ccc(OC)c(Cl)c2)c1", "activity change, negative = inhibition": "inactive: -8.26%"},
      {"smiles": "O=C(CSCc1ccccc1Cl)N1CCN(c2ccc(Cl)cc2)CC1", "activity change, negative = inhibition": "inactive: -1.36%"},
      {"smiles": "O=C(NC(=S)Nc1cccnc1)c1ccccc1", "Potency": "inconclusive: 23.9 µM [inhibitor, partial curve, poor fit]"},
      {"smiles": "Cc1ccc2cc(C=O)c(N3CCOCC3)nc2c1C", "Potency": "inconclusive: 37.9 µM [inhibitor, partial curve, poor fit]"},
      {"smiles": "CCN(CC(=O)Nc1c(F)cccc1F)C(=O)/C=C/c1ccc2c(c1)OCO2", "Potency": "inconclusive: 19 µM [inhibitor, partial curve, poor fit]"},
      {"smiles": "CCc1ccc(Nc2ncccc2C#N)cc1", "Potency": "inconclusive: 37.9 µM [inhibitor, partial curve, poor fit]"},
      {"smiles": "COc1nc(N/N=C/c2ccc(C)cc2)nc(N2CCCCC2)n1", "Potency": "inconclusive: 3.79 µM [inhibitor, full curve]"},
      {"smiles": "O=C(CSc1ccccc1)NCC1(N2CCCCC2)CCCCC1", "activity change, negative = inhibition": "inactive: 4%"},
      {"smiles": "COc1cc(-c2cc(C(=O)NCCc3ccc(S(N)(=O)=O)cc3)c3ccccc3n2)cc(OC)c1OC", "activity change, negative = inhibition": "inactive: -14.9%"},
      {"smiles": "O=C(O)c1ccc(Nc2nc3c(s2)CCCC3)cc1", "Potency": "active: 0.301 µM"},
      {"smiles": "C/C(N)=C(/C#N)C(=O)COC(=O)CCCNC(=O)c1ccc(Cl)cc1", "Potency": "inconclusive: 26.9 µM [inhibitor, partial curve, poor fit]"},
      {"smiles": "O=C(NCc1ccc2c(c1)OCO2)c1cc2ccccc2o1", "Potency": "inconclusive: 23.9 µM [inhibitor, partial curve, poor fit]"},
      {"smiles": "CCCCn1c(=O)[nH]c(=O)c2c1nc(-c1ccc(-c3ccccc3Br)o1)n2CCOC", "Potency": "inconclusive: 23.9 µM [inhibitor, partial curve, poor fit]"},
      {"smiles": "Cc1ccc(OCC(=O)Nc2ccc3c(c2)OCO3)cc1C", "Potency": "active: 23.9 µM"},
      {"smiles": "COc1ccc(C2=NN(CC(=O)Nc3ccccc3C)C(=O)CC2)cc1", "Potency": "inconclusive: 37.9 µM [inhibitor, single point]"},
      {"smiles": "Cc1nc(C)c(-c2ccc(SCC(=O)Nc3ccc(F)cc3F)nn2)s1", "Potency": "inconclusive: 23.9 µM [inhibitor, single point]"},
      {"smiles": "Cc1cc(N2CCCCCC2)n2nc(C)c(-c3ccccc3)c2n1", "Potency": "inconclusive: 19 µM [inhibitor, partial curve]"},
      {"smiles": "CCSC1=NC(C)(C)C=C(/C=C/c2ccc(Cl)cc2Cl)N1", "Potency": "inconclusive: 12 µM [inhibitor, partial curve, poor fit]"},
      {"smiles": "COc1ccccc1Nc1c2ccccc2nc2ccccc12", "Potency": "inconclusive: 26.9 µM [inhibitor, partial curve, poor fit]"},
      {"smiles": "Cc1csc(SCc2nnc(-c3ccccc3Br)o2)n1", "Potency": "active: 1.69 µM"},
      {"smiles": "O=C(NC(Cc1ccccc1)C(=O)O)NC12CC3CC(CC(C3)C1)C2", "note": "(stereo not given)", "activity change, negative = inhibition": "inactive: -0.562%"},
      {"smiles": "Cc1ccc(S(=O)(=O)NN2C(=O)/C(=C/c3ccc(F)cc3)SC2=S)cc1", "Potency": "inconclusive: 26.9 µM [inhibitor, partial curve, poor fit]"},
      {"smiles": "COC(=O)c1c(NC(=O)CCCOc2cccc(C)c2)sc2c1C(C(=O)OC)CC2", "note": "(stereo not given)", "Potency": "inconclusive: 6.75 µM [inhibitor, partial curve, poor fit]"},
      {"smiles": "Clc1ccccc1OCCn1nnc2ccccc21", "Potency": "inconclusive: 21.3 µM [inhibitor, single point]"},
      {"smiles": "O=c1c(-c2ccc(O)cc2)coc2cc(OC3OC(CO)C(O)C(O)C3O)cc(O)c12", "note": "(stereo not given)", "Potency": "active: 23.9 µM"},
      {"smiles": "COCCCNC(=S)NNC(=O)c1cc(C2CC2)nc2ccccc12", "Potency": "active: 12 µM"},
      {"smiles": "CCN1C(=O)/C(=C\\C(=O)c2cccs2)c2cc(Br)ccc21", "Potency": "inconclusive: 37.9 µM [inhibitor, partial curve, poor fit]"},
      {"smiles": "O=C(/C=C/c1cccc(F)c1)N1CCN(c2ccccn2)CC1", "Potency": "inconclusive: 30.1 µM [inhibitor, partial curve, poor fit]"},
      {"smiles": "CCN(CC)S(=O)(=O)c1ccc(C(=O)Nc2cccc(C)c2)cc1", "Potency": "inconclusive: 26.9 µM [inhibitor, partial curve, poor fit]"},
      {"smiles": "Cc1ccc(C)c(-c2csc(Nc3ncccn3)n2)c1", "activity change, negative = inhibition": "inactive: -1.14%"},
      {"smiles": "CC1=Nc2ccccc2/C1=C/c1sc(=S)n(-c2cccc(C(=O)O)c2)c1O", "Potency": "inconclusive: 26.9 µM [inhibitor, single point]"}
    ]}
  ]
}
